The whole screen tested about 150,000 compounds, of which about 540 (0.36%) showed an effect of 50% or more. The list shows a part of the results.

In the experiment the test system is Plasmodium falciparum. As to the kind of experiment: Primary screen in NF54 nanoGlo assay, in single point, at 2uM, 72h; a lower Z score goes with more inhibition. Particulars: timepoint 72 hour. The format is functional, Erythrocyte.
For the compound `O=C(Cn1nc(N2CCOCC2)ccc1=O)N1CCN(Cc2ccccc2)CC1`, the % Inhibition (in general, the drop in the measured response relative to a control, in per cent) is -8% and the Z score worked out at 1.51.
Turning to `CCn1ccnc1CN1CCN(C(=O)c2ccccn2)[C@H]2CS(=O)(=O)C[C@H]21`, the “% Inhibition” value is listed as -15% and the Z score stood at 1.88.
The matching figures for `O=C1[C@H]2CN(Cc3ccc(Cl)cc3)C[C@H]2C(=O)N1CCc1ccccc1`: 0% and 0.02.
The matching figures for `CCn1cc(C(=O)N2C(C)CC(c3ccccc3)C2C)cn1` (stereo unspecified): -13% and 1.88.
In the case of `CC(C)CCNC(=O)[C@@H]1CCC(=O)N1C(C)C`, the “% Inhibition” value is reported as 6% and the Z score is reported as -0.92.
The corresponding values for `O=C(NCC1(Cc2ccc(F)cc2)CCCC1O)N1CCC(F)(CO)C1` (stereo unspecified) are -4% and 0.5.
The matching figures for `Cn1nccc1C(=O)N1CCC(F)(c2cccc(Cl)c2)CC1`: 11% and -1.44.
The corresponding values for `CCN1CCC[C@@H]1CNC(=O)C1CCN(S(=O)(=O)c2ccc3c(ccn3CC)c2)CC1` are -13% and 1.97.
As for `CC[C@H]1CCCCN1C(=O)c1cc(-c2ccc(C3CCCCC3)cc2)on1`, the “% Inhibition” value was -20% and the Z score is 1.78.
The corresponding values for `O=C(Nc1ccc2c(n1)OCCO2)[C@H]1CC[C@@H](C(=O)N2CCOCC2)O1` are 1% and -0.1.
Regarding `Cc1cnc(C(=O)N(C)Cc2c(C)noc2C)cn1`, the “% Inhibition” value stood at 4% and the Z score is listed as -0.87.
The corresponding values for `O=C(CCn1cnnn1)N1CCC2(CCC(=O)N(Cc3ccccn3)C2)CC1` are -10% and 1.21.
The corresponding values for `O=C(NCCCc1ccccc1Cl)c1ccc(CN2CCCC2)cc1` are 21% and -2.85.
The corresponding values for `NC(=O)c1c(F)cccc1OCc1nnc(C2CC2)o1` are -15% and 1.54.
Regarding `COc1ccc2c(c1)CCc1c(C(=O)NCc3ccc4c(c3)OCO4)n[nH]c1-2`, the “% Inhibition” value is on record as -11% and the Z score is given as 2.01.
The corresponding values for `O=C(C1CCN(c2ccc3nncn3n2)CC1)N1CCN(c2ccccn2)CC1` are -6% and 0.83.
The matching figures for `Cc1ccc(CNC(=O)c2nc(C)n(C3CCN(C)CC3)c2C)o1`: -3% and 0.44.
The matching figures for `Cn1c(=O)c2[nH]c(N3CCN(CCOC(=O)c4cccc(Cl)c4)CC3)nc2n(C)c1=O`: -11% and 1.7.
Consider `CN(Cc1nc(-c2ccccc2)cs1)C(=O)c1nc2ccccn2c1F`, for which the “% Inhibition” value was -2% and the Z score came out at 0.32.
For `CC(C)CCc1nnc(NCc2cnc3cnccn23)o1`, the “% Inhibition” value is 0% and the Z score is reported as 0.03.
The corresponding values for `COC[C@H](C)NC(=O)c1ccc(C)s1` are 0% and -0.07.
The corresponding values for `Cc1ncsc1CCC(=O)N1CCC[C@H](Nc2ccc3c(c2)OCCO3)C1` are 8% and -1.02.
The corresponding values for `Cc1c[nH]c([C@H](C)NC(=O)Cc2noc3ccccc23)n1` are -14% and 1.73.
In the case of `O=C(c1ccoc1)N1CCC(n2ccnn2)CC1`, the “% Inhibition” value is listed as 3% and the Z score was -0.51.
The corresponding values for `C=C[C@H]1OCC[C@@H]1C(=O)Nc1nc2c(s1)CCCC2(C)C` are -5% and 0.6.
The matching figures for `CN(C(=O)c1csc2ccccc12)C1(C(N)=O)CCCC1`: -15% and 1.34.
The matching figures for `CN(CCc1nc(-c2cccc(F)c2)n[nH]1)[C@H]1CCS(=O)(=O)C1`: -12% and 1.54.
Regarding `Cc1sc2ncnc(N3[C@@H]4CC[C@H]3CNC(=O)C4)c2c1C`, the “% Inhibition” value is -9% and the Z score was found to be 1.5.
The corresponding values for `O=C1CCn2c(nc3ccccc3c2=O)N1` are -17% and 2.12.
For the compound `Cc1ccc(OCC(=O)N2CCCC2C2CCCCC2=O)cc1C` (stereo unspecified), the “% Inhibition” value is -6% and the Z score was found to be 1.28.
As for `CCNc1ccc(Cl)cc1C(=O)N[C@H]1CCN(C2CCOCC2)C1=O`, the “% Inhibition” value amounted to 8% and the Z score was -1.32.
The corresponding values for `c1ccc(-n2cc(CCNCc3ccc(-c4cc[nH]n4)o3)cn2)cc1` are -2% and 0.44.
Turning to `CN(CC(=O)N[C@@H]1[C@@H]2CCO[C@@H]2[C@@H]1C1CCCC1)Cc1ccncc1`, the “% Inhibition” value was -6% and the Z score amounted to 0.88.
In the case of `N#Cc1c(N)sc2c1CCN(CCc1cccs1)C2`, the “% Inhibition” value is reported as -3% and the Z score is 0.48.
In the case of `CO[C@H]1C[C@@H](O)C12CCN(C(=O)Nc1ccc(C)cc1)CC2`, the “% Inhibition” value is -14% and the Z score came out at 1.88.
The corresponding values for `CN(C)c1ccc(NC(=O)C2CCC2)cc1CN(C[C@H]1CCCO1)C(=O)CC(C)(C)C` are -14% and 1.56.
The matching figures for `CCn1cc(C(=O)N2CCC(CCOC)(c3noc(C4CC4)n3)CC2)cn1`: -13% and 1.68.
The matching figures for `COC(=O)c1ccc([C@@H]2CCCCN2)n1C`: -5% and 0.5.
For `CC(=O)c1cccc(S(=O)(=O)N2CCN(S(=O)(=O)c3ccc4ccccc4c3)CC2)c1`, the “% Inhibition” value is 2% and the Z score is on record as -0.35.
The corresponding values for `COc1ccc(F)c(CN2CCC[C@@]3(CCN(C(=O)CC(C)C)C3)C2=O)c1` are 4% and -0.81.
The corresponding values for `Cc1cccc(OCC(=O)N(Cc2ccc(N(C)C)cc2)[C@H]2CCS(=O)(=O)C2)c1` are 0% and 0.03.
In the case of `O=C(c1ccc(Cl)cc1)N(C(=O)c1ccc(Cl)cc1)n1cnnc1`, the “% Inhibition” value is listed as 5% and the Z score is on record as -0.64.
The corresponding values for `CN(Cc1ccc(N(C)C)nc1)Cc1noc2c1CCCC2` are -18% and 3.34.
`CC(=O)N1C[C@H]2CCN(C(=O)c3noc(C)c3COc3ccc(C)cc3)C[C@@]2(CO)C1`: the “% Inhibition” value is listed as -17% and the Z score amounted to 1.96.
The matching figures for `COc1ccc(CNC(=O)Cn2nc(C(=O)N3CCN(C)CC3)cc2C)cc1`: 0% and 0.01.
The corresponding values for `Cc1cnc(CCNC[C@H](C)c2ccccc2)s1` are -15% and 1.32.
The corresponding values for `Nc1ncccc1CN1CCC[C@H](c2nnc3ccccn23)C1` are 17% and -2.24.
For the compound `COCCN(CC(F)F)C(=O)NCc1ccoc1C`, the “% Inhibition” value is -4% and the Z score is recorded as 0.59.
The corresponding values for `CCc1cc(N[C@H]2CCN(CC(=O)N(C)C)C[C@@H]2O)nc(N(C)C)n1` are -8% and 1.53.
The corresponding values for `Cc1nc(CN2CCN(Cc3c[nH]nc3-c3ccc(F)cc3)CCC2=O)no1` are -12% and 2.26.
Regarding `COCc1ccc(CN2CCC(CCC(=O)NCc3cccc(Cl)c3)CC2)o1`, the “% Inhibition” value is given as -13% and the Z score was found to be 1.68.
The matching figures for `Cn1nc(C(=O)N2CC[C@@]3(CCCN(CCCc4ccccc4)C3)C2)ccc1=O`: 4% and -0.5.
The matching figures for `NC(=O)c1cc(N2CC(CO)(c3ccccc3)C2)ccn1`: 16% and -1.98.
Turning to `Cc1csc(CCNc2ncnc(C)c2C)n1`, the “% Inhibition” value is reported as -8% and the Z score is given as 1.21.
The matching figures for `O=C(c1cc2n(n1)CCCO2)N1CCC(Cc2ccccc2)CC1`: -1% and 0.11.
`Cc1cc(NC(=O)C[C@H]2COc3ccccc3NC2=O)ccc1Br`: the “% Inhibition” value is listed as -1% and the Z score was found to be 0.1.
The matching figures for `Cc1ccc(C(=O)N2CCc3[nH]nc(C(=O)N4CCN(C(C)C)CC4)c3C2)cc1C`: -11% and 1.27.
The corresponding values for `O=C(c1cccnc1)N1C[C@@H]2OCC(=O)N(CC3CC3)[C@@H]2C1` are 29% and -3.28.
The corresponding values for `COc1ccc(NC(=O)CCc2nnc3ccc(N4CCC5(CC4)OCCO5)nn23)cc1` are -13% and 1.74.
For `COc1ccc(C(=O)c2nccn2CC(=O)Nc2cnn(C)n2)cc1`, the “% Inhibition” value came to 0% and the Z score turned out to be 0.05.
The corresponding values for `O=C(Cc1ccccc1Br)Nc1ccc(-c2onc3c2CCc2ccccc2-3)cc1` are -18% and 1.59.
For the compound `Cc1n[nH]c(C)c1CN1C[C@@](C)(c2ccccc2)CCC1=O`, the “% Inhibition” value was found to be 0% and the Z score is recorded as -0.02.
The matching figures for `N=C(NS(=O)(=O)c1c(F)cccc1F)c1ncc(C(F)(F)F)cc1Cl`: 30% and -3.92.
The matching figures for `COc1ccc(CNC(=O)NCCn2nc(-n3ccc4ccccc43)ccc2=O)cc1OC`: 0% and -0.05.
In the case of `COc1ccccc1N(CCC(N)=O)C(=O)CN(CC(F)F)C[C@H]1CCC=CO1`, the “% Inhibition” value is given as -2% and the Z score is on record as 0.21.
For the compound `COc1nc2c(cc1CNC(=O)c1ccc(O)cn1)C(=O)N(C1CCCC1)C2`, the “% Inhibition” value is -12% and the Z score is 2.15.
The matching figures for `Cc1ccc(Oc2nc(N3CCOCC3)nc3c2CN(S(=O)(=O)c2cccc(Cl)c2)CC3)cc1`: 8% and -1.2.
The corresponding values for `Cc1c(NC(=O)c2ccc(Cl)cc2)c(-n2cnnc2)nn1C` are 26% and -3.54.
The matching figures for `Cn1nccc1-c1nc(-c2ccccc2Cn2cccn2)no1`: -9% and 0.77.
For the compound `NC(=O)CN1CCC(C(=O)N2CC[C@]34C(=O)N(Cc5cn(nn5)CCCOc5cccc(c5)[C@@H]23)c2ccccc24)CC1`, the “% Inhibition” value is listed as -8% and the Z score came out at 1.
Consider `O=C(CC(c1ccccc1)c1ccccc1)N1CCC[C@H](n2cnc3ccccc3c2=O)C1`, for which the “% Inhibition” value was -7% and the Z score came to 1.16.
Take `CCc1cccc2c(-c3csc(-c4cccc(C(N)=O)c4)n3)c[nH]c12`: the “% Inhibition” value is 7% and the Z score is listed as -1.14.
The corresponding values for `Cc1c(C(=O)Nc2ccc(F)c(Cl)c2)sc2ncnc(N3CCCC[C@@H]3C)c12` are 9% and -1.42.
The matching figures for `Cc1nc2ccccc2cc1NC(=O)CC1CC1`: -11% and 1.61.
The corresponding values for `O=S(=O)(NCCc1ccccc1Br)[C@H]1CCOC1` are -7% and 0.67.
As to `CCC(CC)C(O)CNC(=O)NC(C)c1cn(C)nc1C` (stereo unspecified), the “% Inhibition” value is reported as -8% and the Z score is given as 1.58.
The matching figures for `Cc1nonc1CNC1CCN(c2ccc3c(c2)CCC3)CC1`: -2% and 0.27.
In the case of `CC(C)C(C(=O)N1CCC2(C1)NC(=O)NC2=O)c1ccccc1` (stereo unspecified), the “% Inhibition” value was -7% and the Z score is 1.53.
Take `O=C(Nc1cc(-c2ccccc2)nc(C(Cl)(Cl)Cl)n1)c1ccccc1`: the “% Inhibition” value is reported as 2% and the Z score is listed as -0.23.
Consider `COCCCN1C(=O)CC(CC(=O)NC(c2ccco2)C(F)(F)F)(c2ccccc2C)C1=O` (stereo unspecified), for which the “% Inhibition” value worked out at 10% and the Z score is on record as -1.21.
The corresponding values for `CNc1nc(N)c(C(=O)Nc2cc(C)on2)s1` are -13% and 2.17.
As to `CCCC(O)(CCC)CNc1ncc(C(=O)N(C)C)cc1Cl`, the “% Inhibition” value is recorded as -13% and the Z score stood at 1.17.
The matching figures for `Cn1cc(C(=O)Nc2ccc3c(c2)nc(C(C)(C)C)n3C)ccc1=O`: -2% and 0.23.

Values taken from ChEMBL document CHEMBL4888484, “Replenishing the malaria drug discovery pipeline: Screening and hit evaluation of the MMV Hit Generation Library 1 (HGL1) against asexual blood stage Plasmodium falciparum ,using a nano luciferase reporter read-out” (2022).
